Experimental data published in the CheMixHub viscosity set.
Several values for one entry are separate records, joined by “and”; a condition that tells them apart may be missing. Equal entries are not always repeated. The source gives many values for each of these; only a part stands here.

CCCCn1cc[n+](C)c1.F[B-](F)(F)F
Conditions	viscosity
293.15 K, 101 kPa	127.6 mPa·s and 127.6 mPa·s and 136.9 mPa·s
299.15 K, 101 kPa	101 mPa·s and 103.5 mPa·s and 101.9 mPa·s
301.15 K, 101 kPa	91.07 mPa·s and 93.24 mPa·s and 92 mPa·s
302.15 K, 101 kPa	86.71 mPa·s and 88.7 mPa·s and 87.52 mPa·s
303.15 K, 100 kPa	85.38 mPa·s
304.15 K, 101 kPa	78.91 mPa·s and 80.52 mPa·s and 79.57 mPa·s
305.15 K, 101 kPa	75.15 mPa·s and 76.8 mPa·s and 75.85 mPa·s
307.15 K, 101 kPa	68.48 mPa·s and 69.89 mPa·s and 69.07 mPa·s
308.15 K, 100 kPa	61.5 mPa·s
313.15 K, 100 kPa	53.84 mPa·s
318.15 K, 101 kPa	38.72 mPa·s and 38.72 mPa·s and 37.79 mPa·s
318.15 K, 101.33 kPa	44 mPa·s
323.15 K, 100 kPa	36.27 mPa·s
323.15 K, 101 kPa	31.08 mPa·s and 38.04 mPa·s
323.15 K, 101.33 kPa	31.6 mPa·s
